Where two headings read alike, the source gives them in different places.
Experiments:
BL21 E. coli = system: BL21 E. coli
Description: LPS were extracted after culture in the presence or absence of KDO or KDO-azide overnight, and fluorescence labeling by Alexa-alkyne was detected by SDS-PAGE. LPS silver stain is shown above and in-gel fluorescence is shown below.
FIG. 7C: Unnatural sugar incorporation and fluorescence labeling of BL21 E. coli after culture for five hours in phosphate-buffered saline in the presence of KDO or KDO-alkyne and reaction with Alexa488-azide.
Fluorescent signal was detected above background for bacteria cultured in the presence of functionalized KDO.

gram negative bacteria = conditions: Dumont 2012; cited from earlier work

SMILES	incorporation into E. coli LPS molecules (BL21 E. coli)	incorporation into LPS molecules of outer membrane (gram negative bacteria)	incorporation / fluorescent signal after 5 h culture (BL21 E. coli)	contact time after which incorporation of HPG into expressed/surface protein is detected (BL21 E. coli cells) [min]	contact time after which incorporation of HPG into expressed/surface protein is detected (BL21 E. coli cells; HPG 50 μg/ml, M9 media, methionine biosynthesis inhibited, 37° C.)
[N-]=[N+]=NC[C@@H](O)C1OC(O)(C(=O)O)C[C@@H](O)[C@H]1O (stereo partly shown) [KDO-azide]	confirming KDO-azide incorporation into LPS molecules	shown to be incorporated into the LPS molecules			
C#CCCC(=O)NC[C@@H](O)C1OC(O)(C(=O)O)C[C@@H](O)[C@H]1O (stereo partly shown) [KDO-alkyne]	shown to be incorporated into E. coli LPS molecules		incorporated KDO-alkyne while suspended in PBS		
CC1(COC(=O)NC[C@@H](O)C2OC(O)(C(=O)O)C[C@@H](O)[C@H]2O)CCC=[N+]1[O-] (stereo partly shown) [KDO-nitrone]	shown to be incorporated into E. coli LPS molecules				
C#CCCC(N)C(=O)O (stereo not shown) [HPG, homopropargylglycine]				30	thirty

— patent publication US10745735B2 (priority 2013, dated 2020)
